Assay results: patent US20260242437A1 (BEIJING MABWORKS BIOTECH, published 2026)

T1: human IL-2Rαβγ (high-affinity IL-2 receptor) on cells (human, UniProt P01589 22-272; P14784 27-551; P31785 23-369)
T1 sequence (looked up) 1: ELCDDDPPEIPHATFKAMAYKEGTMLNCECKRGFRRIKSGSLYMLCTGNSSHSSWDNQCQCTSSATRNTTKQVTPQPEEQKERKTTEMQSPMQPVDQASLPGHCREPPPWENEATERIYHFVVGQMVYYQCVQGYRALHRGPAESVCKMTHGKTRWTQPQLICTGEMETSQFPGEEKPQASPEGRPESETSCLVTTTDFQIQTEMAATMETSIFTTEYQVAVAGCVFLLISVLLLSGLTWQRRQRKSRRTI
T1 sequence (looked up) 2: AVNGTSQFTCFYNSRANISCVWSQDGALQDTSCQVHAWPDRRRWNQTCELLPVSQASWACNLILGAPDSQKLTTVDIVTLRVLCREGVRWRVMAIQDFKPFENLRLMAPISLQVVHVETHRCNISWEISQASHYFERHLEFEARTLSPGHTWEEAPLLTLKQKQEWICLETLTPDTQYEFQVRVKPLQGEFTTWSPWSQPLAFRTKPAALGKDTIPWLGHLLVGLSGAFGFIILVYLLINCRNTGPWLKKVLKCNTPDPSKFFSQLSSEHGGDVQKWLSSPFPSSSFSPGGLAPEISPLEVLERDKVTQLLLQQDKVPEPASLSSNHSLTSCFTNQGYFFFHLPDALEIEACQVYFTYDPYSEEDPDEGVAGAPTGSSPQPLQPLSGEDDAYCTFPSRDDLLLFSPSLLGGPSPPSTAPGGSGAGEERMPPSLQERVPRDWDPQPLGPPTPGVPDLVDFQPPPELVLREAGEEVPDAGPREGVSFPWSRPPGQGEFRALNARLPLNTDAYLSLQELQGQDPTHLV
T1 sequence (looked up) 3: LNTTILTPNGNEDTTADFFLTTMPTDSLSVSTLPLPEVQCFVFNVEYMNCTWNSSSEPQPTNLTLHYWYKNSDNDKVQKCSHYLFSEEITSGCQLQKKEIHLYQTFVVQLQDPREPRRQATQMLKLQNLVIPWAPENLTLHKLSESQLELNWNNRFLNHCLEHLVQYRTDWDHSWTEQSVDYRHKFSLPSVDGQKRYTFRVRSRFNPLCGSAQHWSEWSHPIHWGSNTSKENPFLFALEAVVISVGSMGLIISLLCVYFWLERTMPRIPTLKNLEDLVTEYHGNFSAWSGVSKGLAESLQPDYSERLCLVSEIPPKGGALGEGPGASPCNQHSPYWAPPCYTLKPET

T2: human IL-2Rβγ on CD8+ effector T cells (human, UniProt P14784 27-551; P31785 23-369)
T2 construct: whole, on cells; the assay was on primary human CD8+ effector T cells
T2 sequence (looked up) 1: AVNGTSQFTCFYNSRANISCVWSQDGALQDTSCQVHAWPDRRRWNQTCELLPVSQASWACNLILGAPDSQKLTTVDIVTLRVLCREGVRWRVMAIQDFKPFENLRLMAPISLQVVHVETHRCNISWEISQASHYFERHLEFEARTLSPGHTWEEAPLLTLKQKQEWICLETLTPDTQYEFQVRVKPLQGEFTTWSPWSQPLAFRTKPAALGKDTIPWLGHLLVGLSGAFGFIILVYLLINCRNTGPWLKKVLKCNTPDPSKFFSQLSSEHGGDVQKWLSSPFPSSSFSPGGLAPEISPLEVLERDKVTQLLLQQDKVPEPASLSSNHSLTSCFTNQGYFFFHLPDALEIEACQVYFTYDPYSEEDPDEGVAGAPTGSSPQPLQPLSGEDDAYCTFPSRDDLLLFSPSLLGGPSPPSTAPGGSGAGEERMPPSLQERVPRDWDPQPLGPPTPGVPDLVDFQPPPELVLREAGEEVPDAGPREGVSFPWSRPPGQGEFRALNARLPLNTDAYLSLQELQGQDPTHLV
T2 sequence (looked up) 2: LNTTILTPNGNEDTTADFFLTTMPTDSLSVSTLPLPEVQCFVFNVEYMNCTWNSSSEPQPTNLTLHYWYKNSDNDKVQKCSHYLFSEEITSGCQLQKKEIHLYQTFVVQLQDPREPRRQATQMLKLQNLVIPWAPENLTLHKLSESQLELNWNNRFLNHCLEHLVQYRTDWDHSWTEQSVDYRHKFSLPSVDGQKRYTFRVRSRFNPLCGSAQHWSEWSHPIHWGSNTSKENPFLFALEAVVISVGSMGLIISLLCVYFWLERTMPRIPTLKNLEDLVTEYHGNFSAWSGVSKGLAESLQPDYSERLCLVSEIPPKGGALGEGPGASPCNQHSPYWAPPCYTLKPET

T3: recombinant human IL-2Rβγ protein (human, UniProt P14784 27-240; P31785 23-262)
T3 construct: Bought protein
T3 sequence (looked up) 1: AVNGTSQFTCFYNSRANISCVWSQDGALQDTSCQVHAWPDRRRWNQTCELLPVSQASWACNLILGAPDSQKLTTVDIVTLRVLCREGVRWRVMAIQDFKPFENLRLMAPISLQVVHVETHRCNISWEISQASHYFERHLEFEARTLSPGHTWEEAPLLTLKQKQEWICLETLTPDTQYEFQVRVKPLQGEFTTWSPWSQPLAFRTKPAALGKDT
T3 sequence (looked up) 2: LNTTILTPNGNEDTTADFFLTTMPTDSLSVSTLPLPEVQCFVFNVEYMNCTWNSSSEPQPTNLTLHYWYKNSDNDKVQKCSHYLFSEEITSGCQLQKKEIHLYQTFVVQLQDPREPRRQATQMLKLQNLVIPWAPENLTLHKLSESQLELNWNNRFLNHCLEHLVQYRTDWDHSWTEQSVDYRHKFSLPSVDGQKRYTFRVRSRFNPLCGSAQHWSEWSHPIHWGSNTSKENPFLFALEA


Experiments:
[1] = target: T1, human IL-2Rαβγ (high-affinity IL-2 …); assay: cell-based or functional assay
[2] = target: T2, human IL-2Rβγ on CD8+ effector T cells; assay: flow cytometry on primary human CD8+ effector T cells, PE goat anti-human IgG, MFI
[3] = target: T3, recombinant human IL-2Rβγ protein; assay: SPR (BIAcore 8K), bispecific protein captured by anti-human Fc on CM5, IL-2Rβγ in flow
[4] = target: T1, human IL-2Rαβγ (high-affinity IL-2 …); assay: cell-based or functional assay; remark: listed apart in the source

Binder | EC50 (nM), activation of HEK-Blue/IL-2 cells [1] [nM] | EC50 ratio of IL-2 variant-containing protein to WT [1] | binding result [2] | Kd [3] [nM] | kon [3] [M⁻¹ s⁻¹] | EC50 (ng/mL)-PD1- HEK-Blue/IL-2 [4] [ng/mL] | koff [3] [s⁻¹]
D22: Fc-linker-IL2-D22 (Fc fusion, IL-2 part IL2-D22 (delK35, Y45R)) [human IgG1 Fc omitted here]GGGSGGGGSGGGGSAPASSSTKKTQLQLEHLLLDLQMILNGINNYKNPLTRMLTFKFRMPKKATELKHLQCLEEELKPLEEVLNLAQSKNFHLRPRDLISNINVIVLELKGSETTFMCEYADETATIVEFLNRWITFSQSIISTLT | 0.145 | 12 | binds | – | – | – | –
D37: Fc-linker-IL2-D37 (Fc fusion, IL-2 part IL2-D37 (delK35, F42A, Y45R)) [human IgG1 Fc omitted here]GGGSGGGGSGGGGSAPASSSTKKTQLQLEHLLLDLQMILNGINNYKNPLTRMLTAKFRMPKKATELKHLQCLEEELKPLEEVLNLAQSKNFHLRPRDLISNINVIVLELKGSETTFMCEYADETATIVEFLNRWITFSQSIISTLT | 0.321 | 26.7 | binds | – | – | – | –
PC: Fc-linker-IL2 (positive control protein, IL-2 part from RG6279) (Fc fusion) [human IgG1 Fc omitted here]GGGSGGGGSGGGGSAPASSSTKKTQLQLEHLLLDLQMILNGINNYKNPKLTRMLTAKFAMPKKATELKHLQCLEEELKPLEEVLNGAQSLMFHRDLISNINVIVLELKGSETTFMCEYADETATIVEFLNRWITFAQSIISTLT | 0.221 | 18 | – | – | – | – | –
bispecific recombinant protein 309-0 (other, Anti-PD-1 IgG1 (Keytruda variable regions; L234A/L235A/P329A, knob-into-hole) with one IL2-D37 linked to the C terminus of the knob heavy chain) heavy 1: QVQLVQSGVEVKKPGASVKVSCKASGYTFTNYYMYWVRQAPGQGLEWMGGINPSNGGTNFNEKFKNRVTLTTDSSTTTAYMELKSLQFDDTAVYYCARRDYRFDMGFDYWGQGTTVTVSSASTKGPSVFPLAPSSKSTSGGTAALGCLVKDYFPEPVTVSWNSGALTSGVHTFPAVLQSSGLYSLSSVVTVPSSSLGTQTYICNVNHKPSNTKVDKKVEPKSCDKTHTCPPCPAPEAAGGPSVFLFPPKPKDTLMISRTPEVTCVVVDVSHEDPEVKFNWYVDGVEVHNAKTKPREEQYNSTYRVVSVLTVLHQDWLNGKEYKCKVSNKALAAPIEKTISKAKGQPREPQVYTLPPSRDELTKNQVSLSCAVKGFYPSDIAVEWESNGQPENNYKTTPPVLDSDGSFFLVSKLTVDKSRWQQGNVFSCSVMHEALHNHYTQKSLSLSP heavy 2: QVQLVQSGVEVKKPGASVKVSCKASGYTFTNYYMYWVRQAPGQGLEWMGGINPSNGGTNFNEKFKNRVTLTTDSSTTTAYMELKSLQFDDTAVYYCARRDYRFDMGFDYWGQGTTVTVSSASTKGPSVFPLAPSSKSTSGGTAALGCLVKDYFPEPVTVSWNSGALTSGVHTFPAVLQSSGLYSLSSVVTVPSSSLGTQTYICNVNHKPSNTKVDKKV[human IgG1 Fc with L234A L235A P329A T366W (EU numbers) omitted here]GGGGSGGGGSGGGGSAPASSSTKKTQLQLEHLLLDLQMILNGINNYKNPLTRMLTAKFRMPKKATELKHLQCLEEELKPLEEVLNLAQSKNFHLRPRDLISNINVIVLELKGSETTFMCEYADETATIVEFLNRWITFSQSIISTLT light: EIVLTQSPATLSLSPGERATLSCRASKGVSTSGYSYLHWYQQKPGQAPRLLIYLASYLESGVPARFSGSGSGTDFTLTISSLEPEDFAVYYCQHSRDLPLTFGGGTKVEIKRTVAAPSVFIFPPSDEQLKSGTASVVCLLNNFYPREAKVQWKVDNALQSGNSQESVTEQDSKDSTYSLSSTLTLSKADYEKHKVYACEVTHQGLSSPVTKSFNRGEC | – | – | – | 0.477 | 192000 | 5.34 | –
bispecific recombinant protein 309-1 (other) heavy 1: QVQLVQSGVEVKKPGASVKVSCKASGYTFTNYYMYWVRQAPGQGLEWMGGINPSNGGTNFNEKFKNRVTLTTDSSTTTAYMELKSLQFDDTAVYYCARRDYRFDMGFDYWGQGTTVTVSSASTKGPSVFPLAPSSKSTSGGTAALGCLVKDYFPEPVTVSWNSGALTSGVHTFPAVLQSSGLYSLSSVVTVPSSSLGTQTYICNVNHKPSNTKVDKKVEPKSCDKTHTCPPCPAPEAAGGPSVFLFPPKPKDTLMISRTPEVTCVVVDVSHEDPEVKFNWYVDGVEVHNAKTKPREEQYNSTYRVVSVLTVLHQDWLNGKEYKCKVSNKALAAPIEKTISKAKGQPREPQVYTLPPSRDELTKNQVSLSCAVKGFYPSDIAVEWESNGQPENNYKTTPPVLDSDGSFFLVSKLTVDKSRWQQGNVFSCSVMHEALHNHYTQKSLSLSP heavy 2: QVQLVQSGVEVKKPGASVKVSCKASGYTFTNYYMYWVRQAPGQGLEWMGGINPSNGGTNFNEKFKNRVTLTTDSSTTTAYMELKSLQFDDTAVYYCARRDYRFDMGFDYWGQGTTVTVSSASTKGPSVFPLAPSSKSTSGGTAALGCLVKDYFPEPVTVSWNSGALTSGVHTFPAVLQSSGLYSLSSVVTVPSSSLGTQTYICNVNHKPSNTKVDKKV[human IgG1 Fc with L234A L235A P329A T366W (EU numbers) omitted here]GGGGSGGGGSGGGGSAPASSSTKKTQLQLQHLLLDLQMILNGINNYKNPLTRMLTAKFRMPKKATELKHLQCLEEELKPLEEVLNLAQSKNFHLRPRDLISNINVIVLELKGSETTFMCEYADETATIVEFLNRWITFSQSIISTLT light: EIVLTQSPATLSLSPGERATLSCRASKGVSTSGYSYLHWYQQKPGQAPRLLIYLASYLESGVPARFSGSGSGTDFTLTISSLEPEDFAVYYCQHSRDLPLTFGGGTKVEIKRTVAAPSVFIFPPSDEQLKSGTASVVCLLNNFYPREAKVQWKVDNALQSGNSQESVTEQDSKDSTYSLSSTLTLSKADYEKHKVYACEVTHQGLSSPVTKSFNRGEC | – | – | – | 0.86 | 145000 | 11.6 | 0.000125
bispecific recombinant protein 309-3 (other) heavy 1: QVQLVQSGVEVKKPGASVKVSCKASGYTFTNYYMYWVRQAPGQGLEWMGGINPSNGGTNFNEKFKNRVTLTTDSSTTTAYMELKSLQFDDTAVYYCARRDYRFDMGFDYWGQGTTVTVSSASTKGPSVFPLAPSSKSTSGGTAALGCLVKDYFPEPVTVSWNSGALTSGVHTFPAVLQSSGLYSLSSVVTVPSSSLGTQTYICNVNHKPSNTKVDKKVEPKSCDKTHTCPPCPAPEAAGGPSVFLFPPKPKDTLMISRTPEVTCVVVDVSHEDPEVKFNWYVDGVEVHNAKTKPREEQYNSTYRVVSVLTVLHQDWLNGKEYKCKVSNKALAAPIEKTISKAKGQPREPQVYTLPPSRDELTKNQVSLSCAVKGFYPSDIAVEWESNGQPENNYKTTPPVLDSDGSFFLVSKLTVDKSRWQQGNVFSCSVMHEALHNHYTQKSLSLSP heavy 2: QVQLVQSGVEVKKPGASVKVSCKASGYTFTNYYMYWVRQAPGQGLEWMGGINPSNGGTNFNEKFKNRVTLTTDSSTTTAYMELKSLQFDDTAVYYCARRDYRFDMGFDYWGQGTTVTVSSASTKGPSVFPLAPSSKSTSGGTAALGCLVKDYFPEPVTVSWNSGALTSGVHTFPAVLQSSGLYSLSSVVTVPSSSLGTQTYICNVNHKPSNTKVDKKV[human IgG1 Fc with L234A L235A P329A T366W (EU numbers) omitted here]GGGGSGGGGSGGGGSAPASSSTKKTQLQLEHLLLDLQMILNGINNYKNPLTRMLTAKFRMPKKATELKHLQCLEEELKPLEEVLNLAQSKNFHLRPRDLITNINVIVLELKGSETTFMCEYADETATIVEFLNRWITFSQSIISTLT light: EIVLTQSPATLSLSPGERATLSCRASKGVSTSGYSYLHWYQQKPGQAPRLLIYLASYLESGVPARFSGSGSGTDFTLTISSLEPEDFAVYYCQHSRDLPLTFGGGTKVEIKRTVAAPSVFIFPPSDEQLKSGTASVVCLLNNFYPREAKVQWKVDNALQSGNSQESVTEQDSKDSTYSLSSTLTLSKADYEKHKVYACEVTHQGLSSPVTKSFNRGEC | – | – | – | 0.62 | 152000 | 6.56 | 9.42e-05
